Values quoted from earlier work, collected in paper PMC11006913.
Some of the results follow.

How the values were obtained:
Conditions in all cases: PBM; conditions not shown; double strand, one strand shown; scale: upbm affinity estimate (log intensity, higher = more binding, comparable within an allelic series)
[1] = molecular target: ARX (Homo sapiens) (UniProt Q96QS3)
[2] = molecular target: ARX L343Q (Homo sapiens) (UniProt Q96QS3)
[3] = molecular target: ARX P353L (Homo sapiens) (UniProt Q96QS3)
[4] = molecular target: ARX P353R (Homo sapiens) (UniProt Q96QS3)
[5] = molecular target: ARX R332H (Homo sapiens) (UniProt Q96QS3)
[6] = molecular target: ARX T333N (Homo sapiens) (UniProt Q96QS3)

| Sequence | binding signal [1] | binding signal [2] | binding signal [3] | binding signal [4] | binding signal [5] | binding signal [6] |
| --- | --- | --- | --- | --- | --- | --- |
| GCCCCGCA [8-mer GCCCCGCA] | 10.1 | 10 | 10 | 9.99 | 10.1 | 10.2 |
| AATAGATT [8-mer AATAGATT] | 11.7 | 10.8 | 11.5 | 10.8 | 11 | 11.3 |
| AGGCGGGA [8-mer AGGCGGGA] | 10.2 | 10.2 | 10.2 | 10.2 | 10.2 | 10.3 |
| CCGCCCCG [8-mer CCGCCCCG] | 9.96 | 10.1 | 9.94 | 10 | 10.2 | 10.3 |
| CGGTGCCC [8-mer CGGTGCCC] | 10.3 | 10.2 | 10.3 | 10.2 | 10.3 | 10.3 |
| GCTTGTTA [8-mer GCTTGTTA] | 11.2 | 10.5 | 11.4 | 10.5 | 10.6 | 10.8 |
| GCGCAGCC [8-mer GCGCAGCC] | 10.1 | 10 | 10 | 9.94 | 9.99 | 10.1 |
| GCCCCGGA [8-mer GCCCCGGA] | 10.2 | 10.2 | 10.2 | 10.2 | 10.3 | 10.3 |
| CCCGGCGG [8-mer CCCGGCGG] | 10.1 | 10 | 10.1 | 9.97 | 9.96 | 10.2 |
| GGCTCCCC [8-mer GGCTCCCC] | 10.1 | 10 | 10.1 | 10 | 10 | 10.1 |
| ACCCGGGT [8-mer ACCCGGGT] | 10.5 | 10.2 | 10.6 | 10.1 | 10.2 | 10.4 |
| GCGGGAGC [8-mer GCGGGAGC] | 9.94 | 10.1 | 9.99 | 10.1 | 10 | 10.1 |
| CCCCCTGC [8-mer CCCCCTGC] | 10.3 | 10.1 | 10.2 | 9.93 | 9.99 | 10.2 |
| CAATAATA [8-mer CAATAATA] | 11.8 | 10.9 | 11.4 | 10.8 | 11 | 11.4 |
| GTCAATAA [8-mer GTCAATAA] | 11.6 | 10.8 | 11.4 | 10.7 | 10.9 | 11.3 |
| ATAATTTA [8-mer ATAATTTA] | 12.3 | 10.9 | 11.9 | 10.8 | 11.1 | 11.7 |
| CCCCAAGG [8-mer CCCCAAGG] | 10.1 | 10.1 | 10.1 | 10.1 | 10.1 | 10.2 |
| GACGGGGC [8-mer GACGGGGC] | 10.2 | 10.2 | 10.2 | 10.1 | 10.2 | 10.2 |

| Sequence | binding signal [1] | binding signal [2] | binding signal [3] | binding signal [4] | binding signal [5] | binding signal [6] |
| --- | --- | --- | --- | --- | --- | --- |
| CCGGACCA [8-mer CCGGACCA] | 10.2 | 10.2 | 10.2 | 10.2 | 10.2 | 10.2 |
| ATTAGGGG [8-mer ATTAGGGG] | 12.1 | 10.6 | 11.9 | 10.5 | 10.6 | 11.3 |
| CGGGAAAG [8-mer CGGGAAAG] | 10.3 | 10.2 | 10.2 | 10.2 | 10.2 | 10.3 |
| GCCGGCGC [8-mer GCCGGCGC] | 10.1 | 9.91 | 9.97 | 9.85 | 9.9 | 9.97 |
| CGAACGCC [8-mer CGAACGCC] | 10.2 | 10.2 | 10.2 | 10.1 | 10.2 | 10.3 |
| GCGCGCGC [8-mer GCGCGCGC] | 10.4 | 10.4 | 10.2 | 10.2 | 10.3 | 10.4 |
| ACGCCCCC [8-mer ACGCCCCC] | 10.2 | 10.1 | 10.3 | 9.99 | 9.97 | 10.3 |
| AGCGGCTC [8-mer AGCGGCTC] | 10.2 | 10 | 10.3 | 10.1 | 10 | 10.2 |
| CTGGGCGA [8-mer CTGGGCGA] | 10.3 | 10.2 | 10.5 | 10.2 | 10.2 | 10.4 |
| CAAGCTTG [8-mer CAAGCTTG] | 10.2 | 10.2 | 10.2 | 10.3 | 10.3 | 10.3 |
| CGCCGGAC [8-mer CGCCGGAC] | 10.2 | 10.1 | 10.2 | 10 | 10 | 10.2 |
| TCGGCCGA [8-mer TCGGCCGA] | 10.2 | 10.3 | 10.4 | 10.2 | 10.3 | 10.4 |
| GGCCGTGA [8-mer GGCCGTGA] | 10.3 | 10.3 | 10.2 | 10.2 | 10.3 | 10.4 |
| CGCAGTGC [8-mer CGCAGTGC] | 10.3 | 10.2 | 10.2 | 10.2 | 10.4 | 10.2 |
| GCGGGTCC [8-mer GCGGGTCC] | 10.2 | 10.1 | 10.2 | 10.1 | 10.1 | 10.1 |
| CACGCCTC [8-mer CACGCCTC] | 10.2 | 10.3 | 10.2 | 10.2 | 10.3 | 10.2 |
| AGGCGGGG [8-mer AGGCGGGG] | 10.2 | 10.1 | 10 | 10 | 10.1 | 10.3 |
